According to the supplement of paper PMC4967469:
pIC50: −log10 of the molar value. The IC50 comes from the fitted curve, where viability falls to half of the control; a fit beyond the top or the lowest dose is shown as a bound at that dose. For AUC the same curve is integrated over the 256-fold range of doses and scaled to a fraction: 1 means no effect, lower means more sensitive. For part of these data: An inferred top dose is not printed in the source and was worked back from the curve model. For part of these data: Drugs with an entry number were screened twice under separate entries, and the two screens often disagree.

Columns and labels:
Assay in all cases: Viability of human cancer cell lines after 72 h of drug (GDSC screen)
MG-132 = compound: CC(C)C[C@@H](C=O)NC(=O)[C@H](CC(C)C)NC(=O)[C@H](CC(C)C)NC(=O)OCc1ccccc1 [MG-132]; settings: top dose 1 µM
Experimental: (§1)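 Human cancer cell lines in 384-well plates, medium with 10% serum, drug for 72 h over a 256-fold dose range (nine 2-fold or five 4-fold steps up to the top dose). Adherent lines were fixed and stained with the nucleic acid dye Syto60, suspension lines read with resazurin; signal relative to control wells, capped at 0 and 100%. One two-parameter sigmoid per drug and line, fitted in a mixed model over all curves with the slope shared within a line.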

AR-42 = compound: CC(C)[C@H](C(=O)Nc1ccc(C(=O)NO)cc1)c1ccccc1 [AR-42]; settings: top dose 5.12 µM; top dose inferred
Experimental: as §1

GDC0941 = compound: CS(=O)(=O)N1CCN(Cc2cc3nc(-c4cccc5[nH]ncc45)nc(N4CCOCC4)c3s2)CC1 [GDC0941]; settings: top dose 4 µM; screen: GDSC drug entry 1527; top dose inferred
Experimental: as §1

CEP-701 = compound: C[C@]12O[C@H](C[C@]1(O)CO)n1c3ccccc3c3c4c(c5c6ccccc6n2c5c31)CNC4=O [CEP-701]; settings: top dose 2 µM; top dose inferred
Experimental: as §1

Pazopanib = compound: Cc1ccc(Nc2nccc(N(C)c3ccc4c(C)n(C)nc4c3)n2)cc1S(N)(=O)=O [Pazopanib]; settings: top dose 8 µM
Experimental: as §1

SB 216763 = compound: Cn1cc(C2=C(c3ccc(Cl)cc3Cl)C(=O)NC2=O)c2ccccc21 [SB 216763]; settings: top dose 10 µM; top dose inferred
Experimental: as §1

| Cell Line | AUC (MG-132) | pIC50 (MG-132) | AUC (AR-42) | pIC50 (AR-42) | AUC (GDC0941) | pIC50 (GDC0941) | AUC (CEP-701) | pIC50 (CEP-701) | AUC (Pazopanib) | pIC50 (Pazopanib) | AUC (SB 216763) | pIC50 (SB 216763) |
| --- | --- | --- | --- | --- | --- | --- | --- | --- | --- | --- | --- | --- |
| D-502MG (glioma, adherent) | 0.862 | < 6.00 | 0.649 | 5.98 | 0.756 | 5.67 | 0.595 | 6.58 | 0.817 | < 5.10 | 0.95 | < 5.00 |
| DMS-79 (small cell lung carcinoma, suspension) | 0.986 | < 6.00 | 0.698 | 5.90 | 0.973 | < 5.40 | 0.92 | < 5.70 | 0.975 | < 5.10 | 0.987 | < 5.00 |
| LB771-HNC (head and neck, adherent) | 0.531 | 7.11 | 0.679 | 5.94 | 0.707 | 5.95 | 0.901 | < 5.70 | 0.919 | < 5.10 | 0.933 | < 5.00 |
| TK10 (kidney, adherent) | 0.709 | 6.55 | 0.967 | < 5.29 | 0.689 | 6.02 | 0.637 | 6.49 | 0.894 | < 5.10 | 0.95 | < 5.00 |
| OCI-AML5 (acute myeloid leukaemia, suspension) | 0.87 | 6.10 | 0.271 | 7.12 | 0.755 | 5.90 | 0.554 | 6.76 | 0.97 | < 5.10 | 0.989 | < 5.00 |
| BV-173 (chronic myeloid leukaemia, suspension) | 0.986 | < 6.00 | 0.318 | 6.97 | 0.804 | 5.76 | 0.314 | 7.39 | 0.973 | < 5.10 | 0.908 | < 5.00 |
| NCI-H524 (small cell lung carcinoma, suspension) | 0.889 | 6.03 | 0.657 | 6.08 | 0.881 | 5.47 | 0.55 | 6.77 | 0.986 | < 5.10 | 0.966 | < 5.00 |
| IMR-5 (neuroblastoma, adherent) | 0.992 | < 6.00 | 0.345 | 6.89 | 0.921 | < 5.40 | 0.743 | 6.27 | 0.983 | < 5.10 | 0.984 | < 5.00 |
| EW-18 (Ewing sarcoma, suspension) | 0.892 | < 6.00 | 0.329 | 6.99 | 0.765 | 5.81 | 0.668 | 6.42 | 0.971 | < 5.10 | 0.97 | < 5.00 |
| DMS-114 (small cell lung carcinoma, adherent) | 0.896 | < 6.00 | 0.769 | 5.65 | 0.802 | 5.63 | 0.831 | 5.81 | 0.955 | < 5.10 | 0.985 | < 5.00 |
| NB12 (neuroblastoma, adherent) | 0.807 | 6.13 | 0.299 | 7.15 | 0.769 | 5.69 | 0.78 | 5.94 | 0.957 | < 5.10 | 0.928 | < 5.00 |
| TE-6 (oesophagus, adherent) | 0.895 | < 6.00 | 0.982 | < 5.29 | 0.877 | < 5.40 | 0.928 | < 5.70 | 0.984 | < 5.10 | 0.983 | < 5.00 |
| D-542MG (glioma, adherent) | 0.495 | 7.22 | 0.583 | 6.25 | 0.781 | 5.69 | 0.964 | < 5.70 | 0.933 | < 5.10 | 0.984 | < 5.00 |
| RC-K8 (B-cell lymphoma, suspension) | 0.927 | < 6.00 | 0.7 | 5.97 | 0.979 | < 5.40 | 0.965 | < 5.70 | 0.959 | < 5.10 | 0.993 | < 5.00 |
| COLO-824 (breast, adherent) | 0.922 | < 6.00 | 0.657 | 6.05 | 0.867 | 5.43 | 0.899 | < 5.70 | 0.956 | < 5.10 | 0.987 | < 5.00 |
| SW684 (fibrosarcoma, adherent) | 0.782 | 6.20 | 0.963 | < 5.29 | 0.833 | < 5.40 | 0.761 | 5.98 | 0.739 | 5.47 | 0.889 | < 5.00 |
| ARH-77 (myeloma, suspension) | 0.727 | 6.57 | 0.359 | 6.88 | 0.725 | 5.97 | 0.782 | 6.10 | 0.967 | < 5.10 | 0.982 | < 5.00 |
| KNS-42 (glioma, adherent) | 0.456 | 7.33 | 0.673 | 5.97 | 0.9 | < 5.40 | 0.888 | < 5.70 | 0.918 | < 5.10 | 0.981 | < 5.00 |
| SNB75 (glioma, adherent) | 0.837 | < 6.00 | 0.792 | 5.44 | 0.661 | 6.06 | 0.841 | < 5.70 | 0.714 | 5.57 | 0.979 | < 5.00 |
| LU-139 (small cell lung carcinoma, suspension) | 0.796 | 6.20 | 0.435 | 6.69 | 0.938 | < 5.40 | 0.884 | < 5.70 | 0.942 | < 5.10 | 0.978 | < 5.00 |
| NALM-6 (B-cell leukaemia, suspension) | 0.779 | 6.47 | 0.314 | 6.97 | 0.781 | 5.86 | 0.49 | 6.93 | 0.959 | < 5.10 | 0.975 | < 5.00 |

| Cell Line | AUC (MG-132) | pIC50 (MG-132) | AUC (AR-42) | pIC50 (AR-42) | AUC (GDC0941) | pIC50 (GDC0941) | AUC (CEP-701) | pIC50 (CEP-701) | AUC (Pazopanib) | pIC50 (Pazopanib) | AUC (SB 216763) | pIC50 (SB 216763) |
| --- | --- | --- | --- | --- | --- | --- | --- | --- | --- | --- | --- | --- |
| KNS-81-FD (glioma, adherent) | 0.721 | 6.47 | 0.61 | 6.15 | 0.775 | 5.66 | 0.762 | 6.02 | 0.924 | < 5.10 | 0.975 | < 5.00 |
| HT (B-cell lymphoma, suspension) | 0.821 | 6.29 | 0.381 | 6.81 | 0.752 | 5.91 | 0.802 | 6.05 | 0.987 | < 5.10 | 0.99 | < 5.00 |
| ES5 (Ewing sarcoma, adherent) | 0.92 | < 6.00 | 0.219 | 7.38 | 0.597 | 6.32 | 0.274 | 7.59 | 0.963 | < 5.10 | 0.956 | < 5.00 |
| CMK (acute myeloid leukaemia, suspension) | 0.692 | 6.71 | 0.242 | 7.17 | 0.806 | 5.78 | 0.585 | 6.69 | 0.978 | < 5.10 | 0.987 | < 5.00 |
| EB2 (Burkitt lymphoma, suspension) | 0.972 | < 6.00 | 0.435 | 6.67 | 0.891 | 5.41 | 0.971 | < 5.70 | 0.797 | 5.47 | 0.99 | < 5.00 |
| LXF-289 (lung adenocarcinoma, adherent) | 0.58 | 6.99 | 0.609 | 6.20 | 0.599 | 6.33 | 0.599 | 6.63 | 0.926 | < 5.10 | 0.961 | < 5.00 |
| SU-DHL-4 (B-cell lymphoma, suspension) | 0.697 | 6.73 | 0.256 | 7.09 | 0.71 | 6.09 | 0.748 | 6.30 | 0.94 | 5.15 | 0.997 | < 5.00 |
| NCI-H2227 (small cell lung carcinoma, semi-adherent) | 0.817 | 6.18 | 0.29 | 7.13 | 0.74 | 5.87 | 0.688 | 6.34 | 0.981 | < 5.10 | 0.985 | < 5.00 |
| NCI-H226 (lung squamous cell carcinoma, adherent) | 0.987 | < 6.00 | 0.469 | 6.58 | 0.854 | 5.47 | 0.873 | < 5.70 | 0.963 | < 5.10 | 0.986 | < 5.00 |
| L-540 (Hodgkin lymphoma, suspension) | 0.703 | 6.67 | 0.977 | < 5.29 | 0.935 | < 5.40 | 0.352 | 7.29 | 0.968 | < 5.10 | 0.988 | < 5.00 |
| CCRF-CEM (lymphoblastic leukaemia, suspension) | 0.761 | 6.52 | 0.285 | 7.05 | 0.774 | 5.88 | 0.376 | 7.22 | 0.988 | < 5.10 | 0.986 | < 5.00 |
| P30-OHK (lymphoblastic leukaemia, suspension) | 0.991 | < 6.00 | 0.16 | 7.42 | 0.265 | 7.21 | 0.337 | 7.32 | 0.897 | 5.16 | 0.991 | < 5.00 |
| SK-N-FI (neuroblastoma, adherent) | 0.861 | 6.08 | 0.582 | 6.27 | 0.861 | 5.47 | 0.736 | 6.23 | 0.988 | < 5.10 | 0.959 | < 5.00 |
| TGBC1TKB (biliary tract, adherent) | 0.868 | 6.04 | 0.719 | 5.88 | 0.894 | < 5.40 | 0.909 | < 5.70 | 0.944 | < 5.10 | 0.963 | < 5.00 |
| HCC1187 (breast, suspension) | 0.975 | < 6.00 | 0.819 | 5.56 | 0.838 | 5.60 | 0.591 | 6.66 | 0.948 | < 5.10 | 0.988 | < 5.00 |
| COR-L95 (small cell lung carcinoma, adherent) | 0.952 | < 6.00 | 0.613 | 6.16 | 0.915 | < 5.40 | 0.856 | < 5.70 | 0.984 | < 5.10 | 0.987 | < 5.00 |
| EW-16 (Ewing sarcoma, adherent) | 0.899 | < 6.00 | 0.434 | 6.68 | 0.733 | 5.92 | 0.59 | 6.65 | 0.93 | < 5.10 | 0.934 | < 5.00 |
| CPC-N (small cell lung carcinoma, suspension) | 0.631 | 6.83 | 0.43 | 6.69 | 0.635 | 6.21 | 0.608 | 6.59 | 0.985 | < 5.10 | 0.971 | < 5.00 |
| SBC-1 (small cell lung carcinoma, suspension) | 0.94 | < 6.00 | 0.503 | 6.49 | 0.662 | 6.16 | 0.793 | 6.06 | 0.973 | < 5.10 | 0.953 | < 5.00 |
| ST486 (Burkitt lymphoma, suspension) | 0.844 | 6.22 | 0.345 | 6.90 | 0.989 | < 5.40 | 0.617 | 6.60 | 0.971 | < 5.10 | 0.979 | < 5.00 |
| Raji (Burkitt lymphoma, suspension) | 0.869 | 6.09 | 0.449 | 6.63 | 0.887 | 5.40 | 0.918 | < 5.70 | 0.988 | < 5.10 | 0.99 | < 5.00 |
